Source: PubChem BioAssay AID686978 (National Center for Advancing Translational Sciences (NCATS), 2013)
Several values for one entry are separate records, joined by “and”; a condition that tells them apart may be missing. Identical values can stand only once. In all, about 420,000 compounds went through this assay and about 64,000 (15%) were called active. The inconclusive results got no clear call from the source; some entries with a clear call stand among them for comparison. The call rests on the fitted dose curve; in most records, active means well fitted inhibition curve with a large enough effect; inconclusive means small, poorly fitted or top-dose-only effect; inactive means flat fitted curve, though single readings scatter. No potency is given beside an inconclusive call; the fits are too rough.
On the % scale 0 is the no-effect control and ±100 the full control effect; potency means the concentration at half of the fitted maximal effect; tags describe the fitted curve by direction and shape.

Experiment: qHTS for Inhibitors of human tyrosyl-DNA phosphodiesterase 1 (TDP1): qHTS in cells in absence of CPT; further: nearly all actives have a fitted effect of over 55% in size
Details: DT40 Tdp1-/- hTDP1 cells, no CPT, ATP luminescence, 48 h; activity change, negative = growth inhibition: at 46.2 µM (top of the series) unless noted
How it was run: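 Luminescent ATP content (CellTiter-Glo) served as the growth readout. Knockout chicken DT40 cells expressing human TDP1 were exposed to compounds without camptothecin for a minimum 48 hr at 37 °C.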
For `COc1cc(/C=C/C(=O)c2c(O)cc(C)oc2=O)cc(OC)c1O`, the Potency was inconclusive [inhibitor, single point].
With `Cc1[nH]c2ccccc2c1SCc1nnc(SCc2ccc(Cl)cc2)n1C` the Potency was inconclusive [inhibitor, single point].
With `CCC(Oc1ccc(F)cc1)C(=O)Nc1nc(-c2ccc(F)cc2)ns1` (configuration not stated) the Potency was active: 10.3 µM.
In the case of `O=C(c1csnn1)N1CCC2(CCCN(Cc3cc(C(F)(F)F)cc(C(F)(F)F)c3)C2)CC1`, the “activity change, negative = growth inhibition” value is reported as inactive: -3.75%.
In the case of `CN(Cc1ccccc1)C(=O)CSc1nc2ccccc2n1Cc1ccccc1F`, the Potency is reported as active: 6.51 µM.
In the case of `CCOC(=O)C1C(=O)CC(C)(O)C(C(=O)OCC)C1c1ccco1` (configuration not stated), the Potency is reported as active: 20.6 µM.
For `S=C(NCCc1ccccc1)NCc1cccc(Cl)c1`, the “activity change, negative = growth inhibition” value was inactive: 3.19%.
In the case of `CC(OC(=O)c1ccc(S(=O)(=O)N2CCOCC2)cc1)c1ccccc1` (configuration not stated), the Potency is reported as inconclusive [inhibitor, single point].
In the case of `O=C(CCC1CCCN(C(=O)C2=CCCCC2)C1)N1CCN(c2ccccn2)CC1` (configuration not stated), the Potency is reported as inconclusive [inhibitor, partial curve].
With `CC(C)c1cnc2c(c1SCC(=O)NCc1ccccc1)c(=O)n(C)c(=O)n2C` the Potency was inconclusive [inhibitor, single point].
For `CC(C)c1ccc(/C=C/C(=O)NC(=S)NN2CCOCC2)cc1`, the Potency was inconclusive [inhibitor, single point].
For `COC(=O)c1ccc(NC(=O)CCc2c(C)nc3c(c2C)c(=O)n(C)c(=O)n3C)cc1`, the “activity change, negative = growth inhibition” value was inactive: -16.9%.
With `CCc1c(C#N)c(SCc2c(C)noc2C)nc2c1C(=O)CC(C)(C)C2` the Potency was inconclusive [inhibitor, single point].
With `COc1cccc(/C=N/N2CCN(c3ccncc3S(=O)(=O)N3CCCCC3)CC2)c1` the Potency was active: 2.59 µM.
For `COc1ccc(C(=O)NC(=S)N(C)C2CCCCC2)cc1Br`, the Potency was inconclusive [inhibitor, partial curve].
For `Cc1sc2c(c1C)c(=O)n(-c1cccc(C(F)(F)F)c1)c(=O)n2Cc1ccc(F)cc1`, the activity change, negative = growth inhibition was inconclusive: -30.5% [inhibitor].
For `COc1cc2c(cc1OC)C(COc1ccc([N+](=O)[O-])cc1)N(C(C)=O)CC2` (configuration not stated), the Potency was active: 18.4 µM.
In the case of `COCCNC(=O)c1ccc2c3n(nc2c1)-c1ccccc1CO3`, the Potency is reported as inconclusive [inhibitor, partial curve].
With `Cc1nn(CCOc2ccc(Br)cc2)c(C)c1[N+](=O)[O-]` the Potency was inconclusive [inhibitor, single point].
For `Cc1cc(N2C(=O)C3C4C=CC(C4)C3C2=O)ccc1Br` (configuration not stated), the “activity change, negative = growth inhibition” value was inactive: -15%.
For `CC(NC(=O)c1cc([N+](=O)[O-])cc([N+](=O)[O-])c1)C1CC2CCC1C2` (configuration not stated), the Potency was inconclusive [inhibitor, single point].
With `O=C(NCCN1CCOCC1)[C@H](Cc1ccccc1)N1C(=O)c2ccccc2C1=O` the “activity change, negative = growth inhibition” value was inactive: -28.8%.
With `CCN(CC)S(=O)(=O)c1ccc(C)c(NC(=O)COC(=O)C=C(C)C)c1` the Potency was inconclusive [inhibitor, partial curve, poor fit].
With `COc1cc2c(cc1NC(=O)c1cc(-c3cccnc3)nc3ccc(C)cc13)oc1ccccc12` the Potency was inconclusive [inhibitor, single point].
In the case of `COc1ccc2nc(NC(=O)c3cc(C)oc3C)sc2c1`, the Potency is reported as inconclusive [inhibitor, single point].
For `CC1CC(C)CN(CCCNC(=O)CN2C(=O)CSc3ccc(S(=O)(=O)N4CCCCC4)cc32)C1` (configuration not stated), the “activity change, negative = growth inhibition” value was inactive: -6.6%.
For `CCOc1ccc(S(=O)(=O)NCCC(=O)N(CC)CC(=O)Nc2c(F)cccc2F)cc1`, the activity change, negative = growth inhibition was inconclusive: -0.354% [inhibitor].
With `O=[N+]([O-])c1ccccc1CN1CCN(c2ncccn2)CC1` the Potency was inconclusive [inhibitor, partial curve, poor fit].
In the case of `COc1cccc(CNC(=O)COC(=O)c2c(NC(C)=O)sc(C)c2C)c1`, the Potency is reported as inconclusive [inhibitor, single point].
For `Cc1cc(C)nc(NC(=O)c2ccc(OC(C)C)cc2)n1`, the “activity change, negative = growth inhibition” value was inactive: -20%.
With `COc1ccc2ccccc2c1-c1csc(N)n1` the “activity change, negative = growth inhibition” value was inactive: -8.62%.
For `CC(C)(C)c1cc(NC(=O)Nc2ccc(Br)cc2Cl)no1`, the Potency was inconclusive [inhibitor, single point].
For `O=C(Cc1ccc(F)cc1)Nc1cccc(-c2ccc3nncn3n2)c1`, the Potency was inconclusive [inhibitor, single point].
With `COc1ccc(CNC(=O)c2cnc3cc(C)ccn3c2=O)cc1` the Potency was inconclusive [inhibitor, partial curve, poor fit] and the activity change, negative = growth inhibition was inconclusive: -32% [inhibitor].
In the case of `NC(=O)CSc1nnc(-c2ccccc2Br)n1-c1cccc(C(F)(F)F)c1`, the activity change, negative = growth inhibition is reported as inconclusive: -31.9% [inhibitor].
With `COc1ccc(-n2c(C)c(C(C)=O)c(C(C)=O)c2C)cc1OC` the “activity change, negative = growth inhibition” value was inactive: -20.9%.
With `COc1ccc(N2CC(NC(=O)N3CCN(C(=O)c4ccco4)CC3)CC2=O)cc1OC` (configuration not stated) the “activity change, negative = growth inhibition” value was inactive: 0.768%.
With `CCCC/C(O)=C/c1nc2ccccc2[nH]c1=O` the activity change, negative = growth inhibition was inconclusive: -31.8% [inhibitor].
With `Cc1ccc(Oc2ccc(NC(=O)C3=CC=CN4CCS(=O)(=O)N=C34)cc2)cc1` the Potency was inconclusive [inhibitor, single point].
In the case of `CCCCn1nnnc1NCc1ccc(N(CC)CC)cc1`, the “activity change, negative = growth inhibition” value is reported as inactive: -21.6%.
With `O=C(c1ccco1)N1CCN(c2nc3ccc(Cl)cc3s2)CC1` the Potency was active: 23.1 µM.
With `COc1ccc(C(C)NC(=O)c2ccncc2)cc1OC` (configuration not stated) the “activity change, negative = growth inhibition” value was inactive: 7.4%.
In the case of `C[C@@]12C(=O)Nc3ccc(Cl)cc3C(=O)N1[C@H]1c3ccccc3OC[C@@H]1[C@@H]2c1ccccc1`, the Potency is reported as inconclusive [inhibitor, single point].
With `C/C(=N/NC(=O)CN1CCN(S(=O)(=O)c2ccc(C)cc2)CC1)c1cccc(O)c1` the “activity change, negative = growth inhibition” value was inactive: 5.42%.
For `COCCN(C(=O)CSc1nnc2cc(C)c3ccccc3n12)c1c(N)n(Cc2ccccc2)c(=O)[nH]c1=O`, the Potency was inconclusive [inhibitor, single point].
For `O=C1c2ccccc2C(c2nnnn2-c2ccc3c(c2)OCCO3)N1Cc1ccc2c(c1)OCO2` (configuration not stated), the Potency was active: 16.4 µM.
In the case of `COc1ccc(N(C(=O)Cn2nnc(-c3ccc(Cl)cc3)n2)C(C(=O)NCC2CCCO2)c2ccc(C)cc2)cc1` (configuration not stated), the “activity change, negative = growth inhibition” value is reported as inactive: -72.5%.
With `CCc1nc2ccc(C(=O)NCCc3ccc(OC)c(OC)c3)cc2nc1CC` the Potency was active: 11.6 µM and active: 23.1 µM.
For `Cc1cc2c(cc1C)NC(=O)C(C)CN2` (configuration not stated), the Potency was inconclusive [inhibitor, single point].
For `COc1ccc(-c2cc(CNS(=O)(=O)c3ccc(F)cc3)on2)cc1`, the Potency was inconclusive [inhibitor, single point].
With `O=C(COc1cccc2cccnc12)N/N=C/c1ccccc1O` the Potency was active: 10.3 µM.
With `N#C[C@@H]1N(Cc2ccccc2)C(=O)[C@H]2CC3C=CC21O3` (some centres not stated) the Potency was inconclusive [inhibitor, single point].
In the case of `O=S(=O)(c1ccc(-c2cc(C(F)(F)F)on2)s1)N1CCN(c2cccc(Cl)c2)CC1`, the “activity change, negative = growth inhibition” value is reported as inactive: -4.2%.
With `CCN1CCN(CCCNC(=O)c2cc3c(s2)-c2c(C)cccc2OC3)CC1` the Potency was active: 5.8 µM.
For `COc1ccc(CN2CCNC(=O)C2CC(=O)N2CCCN(C(C)=O)CC2)cc1OC` (configuration not stated), the “activity change, negative = growth inhibition” value was inactive: 1.86%.
For `CC1=CC(C)(C(Cl)(Cl)Cl)C(C)=CC1=NO` (configuration not stated), the Potency was inconclusive [inhibitor, partial curve, poor fit].
In the case of `Cc1cc(C)n(CC(=O)O)c(=O)c1[N+](=O)[O-]`, the “activity change, negative = growth inhibition” value is reported as inactive: 0.0711%.
In the case of `O=C(NCCN1CCOCC1)C1CC(=O)N(c2ccc(F)cc2)C1` (configuration not stated), the activity change, negative = growth inhibition is reported as inconclusive: -19.9% [inhibitor].
In the case of `N#Cc1ccccc1Sc1ccccc1C(=O)Nc1ccc2ccccc2c1`, the Potency is reported as inconclusive [inhibitor, partial curve, poor fit].
With `O=C(Nc1ccc2c(c1)oc1ccc(S(=O)(=O)N3CCCC3)cc12)C1CC1` the Potency was inconclusive [inhibitor, single point].
For `CC(=O)N1CCN(C(=S)Nc2ccc(SC(F)F)cc2)CC1`, the “activity change, negative = growth inhibition” value was inactive: -22.9%.
With `CC[C@]12c3[nH]c4ccccc4c3CCN1C(=O)C(CC(=O)NCc1ccc(OC)c(OC)c1)C[C@@H]2C(=O)N1CCN(C(=O)C2CC2)CC1` (some centres not stated) the Potency was inconclusive [inhibitor, partial curve, poor fit].
For `COc1ccccc1C(=O)Nc1c(C)cc(Br)cc1C`, the Potency was inconclusive [inhibitor, single point].
With `CCCNC(=O)Nc1ccc2c(c1)N(C)C(=O)c1ccccc1S2` the Potency was inconclusive [inhibitor, partial curve].
In the case of `O=C(CN1CCN(S(=O)(=O)c2ccc(F)c(F)c2)CC1)Nc1ccccc1C(=O)NC1CC1`, the Potency is reported as inconclusive [inhibitor, single point].
In the case of `CCn1c(SCC(=O)c2ccccc2)nc2sc3c(c2c1=O)CCN(C)C3`, the Potency is reported as active: 20.6 µM.
With `CCOC(=O)C1CCN(C(=O)c2ccc3c(c2)NC(=O)/C(=C\c2cccc(C)c2)S3)CC1` the Potency was active: 18.4 µM.
For `COc1ccccc1C(CC(=O)Nc1ccc(Cl)cc1)c1ccc(OC(C)C)cc1` (configuration not stated), the Potency was inconclusive [inhibitor, single point].
In the case of `COc1ccc(/C(C)=N/Nc2ccc(C(=O)O)cc2)c(OC)c1`, the “activity change, negative = growth inhibition” value is reported as inactive: -19.1%.
For `CCN1CCN(C2=C(NS(=O)(=O)c3ccccc3)C(=O)c3ccccc3C2=O)CC1`, the Potency was active: 16.4 µM.
With `COC(=O)c1ccc(/C=N/NC(=O)C2CC(=O)N(c3ccc(OC)cc3)C2)cc1` (configuration not stated) the “activity change, negative = growth inhibition” value was inactive: -1.94%.
